Among all 310,000 compounds or so, about 2,200 (0.71%) showed an effect of 50% or more. Effects have a minus sign here. The list shows a part of the results.
target: human ether-à-go-go-related gene (hERG) potassium channel (human, UniProt Q12809); experiment: primary screen, population patch clamp on CHO cells stably expressing hERG
Sequence (Q12809 whole entry, looked up): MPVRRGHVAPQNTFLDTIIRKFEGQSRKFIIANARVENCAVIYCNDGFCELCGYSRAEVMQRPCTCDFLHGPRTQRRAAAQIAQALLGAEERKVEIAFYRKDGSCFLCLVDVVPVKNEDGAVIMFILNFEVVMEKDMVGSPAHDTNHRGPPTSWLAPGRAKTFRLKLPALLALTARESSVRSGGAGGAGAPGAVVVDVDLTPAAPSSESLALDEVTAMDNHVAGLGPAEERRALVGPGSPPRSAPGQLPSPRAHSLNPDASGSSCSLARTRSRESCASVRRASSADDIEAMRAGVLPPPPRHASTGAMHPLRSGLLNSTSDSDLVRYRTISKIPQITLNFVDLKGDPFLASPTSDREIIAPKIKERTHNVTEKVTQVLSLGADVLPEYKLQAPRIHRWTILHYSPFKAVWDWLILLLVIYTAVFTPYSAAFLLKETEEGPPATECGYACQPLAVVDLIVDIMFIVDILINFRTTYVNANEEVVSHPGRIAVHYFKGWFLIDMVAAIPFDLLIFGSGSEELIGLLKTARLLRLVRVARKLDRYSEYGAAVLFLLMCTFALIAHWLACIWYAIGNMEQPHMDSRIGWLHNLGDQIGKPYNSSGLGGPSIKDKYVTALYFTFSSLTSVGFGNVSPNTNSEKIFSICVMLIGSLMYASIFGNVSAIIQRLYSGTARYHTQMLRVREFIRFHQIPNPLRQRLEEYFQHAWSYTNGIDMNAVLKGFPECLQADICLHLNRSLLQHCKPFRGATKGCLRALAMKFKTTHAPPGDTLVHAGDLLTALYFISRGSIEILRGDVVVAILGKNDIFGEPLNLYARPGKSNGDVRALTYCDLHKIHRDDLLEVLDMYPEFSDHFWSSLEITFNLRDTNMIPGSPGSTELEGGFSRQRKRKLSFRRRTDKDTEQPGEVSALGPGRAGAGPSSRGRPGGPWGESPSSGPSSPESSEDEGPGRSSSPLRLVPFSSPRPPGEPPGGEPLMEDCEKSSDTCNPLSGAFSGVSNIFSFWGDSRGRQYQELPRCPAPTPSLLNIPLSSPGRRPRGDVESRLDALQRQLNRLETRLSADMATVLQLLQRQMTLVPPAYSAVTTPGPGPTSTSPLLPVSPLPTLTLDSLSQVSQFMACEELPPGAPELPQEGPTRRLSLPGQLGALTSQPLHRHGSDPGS

Row | Structure (SMILES) | hERG current change (%, negative = inhibition) at 1uM
1 | COc1cccc2cc(CC(=O)c3ccc(C)c(C)c3)c(=O)oc12 | 14.2%
2 | Cl.Nc1nc(Nc2cccc(F)c2)nc2ccccc12 | 5.64%
3 | O=C(NC1=NCCS1)c1ccccc1OCc1ccccc1Cl | 8.85%
4 | CC1=NN(c2ccccc2)C(=O)C1/C=C1\NC(=S)NC1=O (stereo not shown) | 20.9%
5 | NC(=O)CC(NC(=O)c1ccccc1)c1ccc(NCCN2CCOCC2)c([N+](=O)[O-])c1 (stereo not shown) | 7.41%
6 | Cc1ccc(-c2csc(NC(=O)Cn3[nH]c(=O)c4ccccc4c3=O)n2)cc1 | 12.2%
7 | CCCc1cc2c(cc1NC(=O)c1ccccc1Cl)OCO2 | 18.4%
8 | CC(C)c1onc(C(=O)Nc2cccc(Cl)c2)c1[N+](=O)[O-] | 10.3%
9 | COc1ccc(/C=C(\C#N)C(=O)c2c(C)[nH]c3ccccc23)cc1OC | 9.74%
10 | Fc1ccc2c(c1)C(c1ccncc1)=NNC(c1ccc(Cl)cc1)=N2 | 0.45%
11 | Cc1cccc(-n2cnc3sc(C)c(C)c3c2=O)c1 | 10.3%
12 | Cc1c(C)n(CCN(C)C)c2ccc(C(=O)OCCN(C)C)cc12.Cl | 4.47%
13 | COc1ccc(C(O)(CCc2ccccc2)CCN2CCCCC2)cc1.Cl (stereo not shown) | 4.09%
14 | Fc1c(F)c(F)c(N=Cc2ccc3ncccc3c2)c(F)c1F | 7.15%
15 | CS(=O)(=O)n1nc(-c2ccc(Cl)cc2)nc1SCc1ccccc1 | -15.9%
16 | COCCN(CCOC)S(=O)(=O)c1ccc(C(=O)Nc2c(C)n(C)n(-c3ccccc3)c2=O)cc1 | 7.95%
17 | Cc1ccc(C)c(Cn2c3ccccc3c3cnn(CC(=O)NCc4ccccn4)c(=O)c32)c1 | 17.4%
18 | CC1(C)NC(C)(C)C(O)(C(N)=O)C1=O (stereo not shown) | -0.542%
19 | O=C(NNc1nc2c(F)cccc2s1)C1COc2ccccc2O1 (stereo not shown) | 13.7%
20 | Cc1cccc(N(CC(=O)NCC2CCCO2)C(=O)CNS(=O)(=O)c2ccc(Cl)cc2)c1 (stereo not shown) | 8.75%
21 | c1ccc(CSc2nnc(Cc3ccccn3)o2)cc1 | 21%
22 | O=C(Nn1cnnc1)c1cc(-c2cccc(Br)c2)nc2ccccc12 | 12.8%
23 | COc1cc(C(=O)Nc2nnc(C3CC3)s2)ccc1OCc1c(C)noc1C | 9.86%
24 | CCCOc1ccc(C(=O)NC(=S)NNC(=O)c2c(-c3ccccc3)noc2C)cc1 | 9.11%
25 | Cc1csc2nc(O)c(C(=O)NC3CCCCC3C)c(=O)n12 (stereo not shown) | -16.1%
26 | COc1ccc(Cl)cc1N(CC(=O)NC(C(C)C)C(C)C)S(C)(=O)=O | 5.31%
27 | Cc1ccccc1CC1S/C(=N/N=C/c2ccco2)NC1=O (stereo not shown) | 14.5%
28 | c1ccc(-n2ncc3c(NCc4ccc5c(c4)OCO5)ncnc32)cc1 | -3.43%

Row | Structure (SMILES) | hERG current change (%, negative = inhibition) at 1uM
29 | C=CCN1c2ccccc2[C@]23C[C@@H](C(=O)OC)N(C(=O)NCCC)C2=NC(C(=O)OC)=C(C(=O)OC)[C@H]13 | 16.2%
30 | CC(=O)N1CCOCCOCCN(C(C)=O)CCOCC1 | 17.2%
31 | Cc1cccc(C)c1NC(=O)COC(=O)c1ccc2c(c1)OCO2 | 2.63%
32 | COc1ccc(S(=O)(=O)NN=C2CCCC2)cc1 | 4.71%
33 | Cc1csc(Sc2ccc([N+](=O)[O-])cc2C(=O)OCC(=O)NC(=O)NC(C)(C)C)n1 | 11.8%
34 | CCO.N#CC1=C(N)OC2=C(CC/C2=C\c2ccccc2Cl)C1c1ccccc1Cl (stereo not shown) | 4.4%
35 | COc1ccc2c(c1)nc(CN1CCN(CCO)CC1)n2C | 16.6%
36 | O=C(Nc1cccc(S(=O)(=O)Nc2ccc(Cl)cc2)c1)c1cc2c(s1)CCCC2 | 5.26%
37 | COc1ccc(/C=N/Nc2ncnc3sc(C)c(C)c23)cc1 | 13.3%
38 | O=C(Nc1ccccc1[N+](=O)[O-])C1(c2ccccc2)CCOCC1 | 1.47%
39 | CCS(=O)c1ccccc1C(=O)OCC(=O)Nc1cccc(S(=O)(=O)N2CCCCC2)c1 (stereo not shown) | 9.4%
40 | CCCCn1c(=O)[nH]c(=O)c2c1nc(-c1ccc(OC(F)F)c(OC)c1)n2C | 14.9%
41 | O=C(O[C@@H]1[C@H](Cc2ccccc2)NS(=O)(=O)[C@H]2C[C@@H]3C=C[C@]12O3)c1ccccc1Br | 17.6%
42 | Cc1cc(C)n(-c2ccc(NC(=O)C3CCCCN3C(=O)c3ccoc3)cc2)n1 (stereo not shown) | 4.95%
43 | Cc1nn2c(N3CCOCC3)cc(C(C)C)nc2c1-c1ccccc1 | 7.26%
44 | COc1ccc(OC)c(NC(=O)C2CCN(c3cc(-c4ccccc4)nc4ncnn34)CC2)c1 | -2.67%
45 | O=C(CN1C(=O)NC2(CCOc3ccccc32)C1=O)Nc1ccc(F)c(F)c1F (stereo not shown) | 7.15%
46 | Nc1cc(=O)[nH]c(SCC(=O)N2CCc3ccccc3C2)n1 | 10%
47 | CCCC(=O)CN1C(=O)C2(OCCO2)c2ccccc21 | 8.5%
48 | COc1cc(/C=N/NC(=O)Cc2csc(C)n2)ccc1OCC(C)C | 6.66%
49 | CCc1nc2ccccc2n1CC(O)COCC1CC=CCC1 (stereo not shown) | 1.5%
50 | O=C(NCc1cccnc1)/C(=C/c1ccc(-c2cccc(C(F)(F)F)c2)o1)NC(=O)c1ccccc1 | -18.4%
51 | O=C(CC(=O)N1CCN(c2ccccn2)CC1)Nc1ccc2nc3n(c(=O)c2c1)CCCCC3 | 2.67%
52 | CCCCNC(=S)N(CCN(C)C)Cc1cc2cc3c(cc2[nH]c1=O)OCCO3 | 10.8%
53 | NNC(=O)CNC(=O)c1cccc(Br)c1 | -12.4%
54 | Cc1coc2cc3oc(=O)ccc3cc12 | 7.21%
55 | COc1ccc(-c2cnc(N)nc2-c2ccc(OC)cc2)cc1 | 17.5%

Source: PMC4336329 (PLoS ONE, 2015)
